Experimental data taken from the RNAGym collection of RNA variant scans (doi:10.1093/nar/gkz1192).
Read counts are not given, so values of variants with three or more changes are uncertain.

B1: CPEB3 Ribozyme (parent)
chain: UAACAGGGGGCCACAGCAGAAGCGUUCACGUCGCAGCCCCUGUCAGAUUCUGGUGAAUCUGCGAAUUCUGCUGUAUAUCUC

Variants of: B1
Experiment: self-cleavage, relative activity (ratio to wild type); higher = more cleavage; in vitro, sequencing
Summary of the method: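 Libraries of CPEB3 self-cleaving ribozyme mutants came from rounds of error-prone PCR and carried barcodes, which DNA sequencing matched to variants. In vitro transcription used T7 RNA polymerase at 37°C for 5 hours, with a further 15 min in DNase I before EDTA stopped the reaction; the ribozymes cleaved during both steps. The RNA was reverse transcribed with template switching and sequenced on Illumina. Relative activity is the cleaved/total read fraction of a variant divided by that of the unmutated ribozyme, averaged over three batches with at least 5 reads.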

| Variant | self-cleavage |
| --- | --- |
| UAACAGGGGGCCACAGCGGAAACGCUCACGUCGCAGCCCCUGUCAGAUUCUGGUGAAUCCGCGAAUUCUGCUGUAUAUCUC | 0.06 |
| UAACAGGGGGCCACAGCGGAAACGUCCACGUCGCAGCCCCUGUCAGAUUCUGGUGAAUCAGCGAGCUCCGCUGUAUAUCUC | 0.09 |
| UAACAGGGGGCCACAGCGGAAGCGUUCACGUCGCAGCCCCUGUUAGAUUCUGGUGGAUCUGCGAAUUCUGCUGUAUAUCUC | 0.15 |
| UAACAGGGGGCCACAGCGGAAUCGUUCACGUCGCAGCCCCUGUCUGACUCUGGUGAAUCUGCGAAUCCUGCUGUAUAUCUC | 0.16 |
| UAACAGGGGGCCACAGCGGAAGCGUUCACGUCGCAGCCCCUGUCAGAUUCUGGUGAAUCUGCGAAUUCUGGCGUAUAUCAC | 0.37 |
| UAACAGGGGGCCACAGCGUAAGCGUUCACGUCGCAGCCCCUGUCAGAUUCUGGUGAAUCUGCGAAUUCUGUUGUAUAUCUC | 0.14 |
| UAACAGGGGGCCACAGCGGAAGCGUUCACGUCGCAGCCCUUGUCAGAUUCCGGUGAAUCUGCGAAUUCUGCGGUAUAUCUC | 0.2 |
| UAACAGGGGGCCACAGCGGAAACGCUCACGUCGCAGCCCCUGUCAGAUUCAGGUGAAUCUGCGAAUUCUGCUGUAUAUCUC | 0.11 |
| UAACAGGGGGCCACAGCGGAAGCGUUCACGUCGCAGCCCUUGUCAGAAUCUGGUGAAUCUGCGAAUUCUGCUGUAUACCUC | 0.07 |
| UAACAGGGGGCCACAGCGGAAGCAUUCACGUCGCAGCCCCUGUCAGAUUCUGGUGAAUCUGCGGAUUCUGCUGUAUAUCUC | 0.15 |
| UAACAGGGGGCCACAGCGGAAGCGUUCACGUCGCAGCCCCUGUUAGAUUCUGGUGGGUCUGCGAAUUCUGAUGUAUAUCUC | 0.22 |
| UAACAGGGGGCCACAGCGGAAGCGUUCACGUCGCAGCCCCUGUCAGAUUCUGGUGAAUCUGCGAAUUUUGCUGAAUAUCUC | 0.14 |
| UAACAGGGGGCCACAGCGGAAGCGUUCACGUCGCAGCCUCUGUCGGAUUCUGGUGAAUCAGCGGAUUCUGCUGUAUACCUC | 0.15 |
| UAACAGGGGGCCACAGCGGAAGCGUUCACGUCGCAGCCUCUGUCAGAUACUGGUGAUUCUGCGAAUUCUGCUGUAUAUCCC | 0.1 |
| UAACAGGGGGCCACAGCGGAAGCAUUCACGUCGCAGCCCCUGUCAGAUUCUGGUGGAUCUGCGAACUCUGCUGUAUAUCUC | 0.36 |
| UAACAGGGGGCCACAGCGCAAGCGUUCACGUCGCAGCCCCUGUCAGAUUCUGGUGGAUCUGCGCUUUCAGCUGUAUAUCUC | 0.07 |
| UAACAGGGGGCCACAGCGGAAGCGUUCACGUCGCAGCCCAUGUCAGAUUCUGGUGAAGUUGCGGAUUCUGCUGUUUAUCUC | 0.11 |

| Variant | self-cleavage |
| --- | --- |
| UAACAGGGGGCCACAGCGCGAGCGUUCACGUCGCAGCCCCAGUCAGAUUCCGGUGAAUCUGCGAAUUCUGCGGUAUAUGUC | 0.07 |
| UAACAGGGGGCCACAGCGGAAGCAUUCACGUCGCAGCCCCUGUCAGAUUCUGGUGAAUCUGCGAUUUCUGCUGUAUAUCAC | 0.19 |
| UAACAGGGGGCCACAGCGGAAGCGUUCACGUCGCAGCCCCUGUUAGGUUCUGGUGAAUCUGCGAAUACUGCCGUAUAUCUC | 0.13 |
| UAACAGGGGGCCACAGCGGAAGCGUUCACGUCGCAGCCCUUGUCAGAUUCUGGUGCAUCCGCGUAUUCUGCUGUAUAUCUC | 0.09 |
| UAACAGGGGGCCACAGCGGAAGCGUUCACGUCGCAGCCGCUGUCAGAUUCUGGUGAAUCUGCGGAUUCUGCUGUAUAUCUC | 0.07 |
| UAACAGGGGGCCACAGCGGAAGCGUUCACGUCGCAGCCCCUGUCAGAUUCUGGUGAAUCUGUGAAUUCUGCAGUAUAUCUC | 0.16 |
| UAACAGGGGGCCACAGCGGAAGCGUUCACGUCGCAGCCCGUGUCAGAUUCUGGUGGAUCUGCGAAUUCUGCUGUAUAUCUC | 0.09 |
| UAACAGGGGGCCACAGCGGAAGCGUUCACGUCGCAGCCCCUGUCAGAUUCUGGUGAAUUCGCGAAUUCUGCUGAAUAUCUC | 0.22 |
| UAACAGGGGGCCACAGCGGAAACGCUCACGUCGCAGCUCCUGUCAGAUUCUGGUGAAUCUGCGAAUUCUGCUGUAUAUCUC | 0.05 |
| UAACAGGGGGCCACAGCGGAAGCGUUCACGUCGCAGCUCCAGUCAGAUUCUGGUGAAUCUGCGAAUUCUGCUGUAUAUCUC | 0.11 |
| UAACAGGGGGCCACAGCGGAAGCGUUCACGUCGCAGCCCUUGUCUGAUUCUGGUGAAUCUGCGAAUUCUGCUGUAUAUCUC | 0.14 |
| UAACAGGGGGCCACAGCGAAAGCGUUCACGUCGCAGCCCCCGUCAGAUUCUGGUGUAUCUGCGAAUUCUGCUGUAUAUCUC | 0.1 |
| UAACAGGGGGCCACAGCGGAAACGUUCACGUCGCAGCCCCUGUCAGAUUCAGGUGAAUCUGCGAACUCUGCUGUAUAUCUC | 0.08 |
| UAACAGGGGGCCACAGCGCAAGCGUUCACGUCGCAGCCCCUGUCAGAUUCCGGUGAAUCUGCGAAUUCUGCUGUAUAUCUC | 0.1 |
| UAACAGGGGGCCACAGCGGAAGCAUUCACGUCGCAGCCCCUGUCAAAUUCUGGUGUAUCUGCGGAUCCUGCUGUAUAUCUC | 0.15 |
| UAACAGGGGGCCACAGCGGAAGCGUUCACGUCGCAGCCCCUGUCAGAUUAUGGUGAGUCUGCGAAUUCUGCUGUAUAUCUC | 0.32 |
| UAACAGGGGGCCACAGCGUAAGCGUUCACGUCGCAGCCCCUGUCAGAUUCUGGUGAAUCUGCGAAUUCUGCAGUAUAUCCC | 0.14 |
